# Measurements published in PubChem BioAssay AID588342 (National Center for Advancing Translational Sciences (NCATS), 2011).
# The whole screen tested about 360,000 compounds, of which about 25,000 (6.9%) were called active. Inconclusive results, whose numbers are uncertain, are shown with a selection of clear calls. Calls come from the whole dose curve; as a rule, active = well fitted inhibition curve with a large enough effect; inconclusive = small, poorly fitted or top-dose-only effect; inactive = flat fitted curve, though single readings scatter. Potencies beside an inconclusive call are fits to weak or partial responses and may not hold up.
# Target: Luciferin 4-monooxygenase (Photinus pyralis) (UniProt P08659)
# Chain of UniProt P08659 (P08659 whole entry, looked up): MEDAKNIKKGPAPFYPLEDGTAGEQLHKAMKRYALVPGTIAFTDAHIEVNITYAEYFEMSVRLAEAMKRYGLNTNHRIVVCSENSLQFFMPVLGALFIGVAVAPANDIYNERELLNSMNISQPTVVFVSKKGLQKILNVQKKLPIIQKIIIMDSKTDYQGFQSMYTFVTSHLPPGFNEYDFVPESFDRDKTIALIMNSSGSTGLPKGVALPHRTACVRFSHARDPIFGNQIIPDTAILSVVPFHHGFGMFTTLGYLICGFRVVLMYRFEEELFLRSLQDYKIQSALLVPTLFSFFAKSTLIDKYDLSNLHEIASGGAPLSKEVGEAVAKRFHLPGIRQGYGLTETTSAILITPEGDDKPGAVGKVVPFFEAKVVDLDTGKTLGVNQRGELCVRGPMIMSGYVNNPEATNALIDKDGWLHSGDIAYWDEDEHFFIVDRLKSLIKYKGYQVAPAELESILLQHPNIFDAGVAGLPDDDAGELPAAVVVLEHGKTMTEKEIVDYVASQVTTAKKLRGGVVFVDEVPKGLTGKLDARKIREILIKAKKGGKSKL
# Experiment: qHTS profiling assay for firefly luciferase inhibitor/activator using purifed enzyme and Km concentrations of substrates (counterscreen for miR-21 project); note: nearly all actives have a fitted effect of over 55% in size;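 for activity change, negative = inhibition: plate controls were vehicle for no effect and reference inhibitor for full effect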
# Settings: purified FLuc, luminescence inhibition; series mostly up to 57.5 µM; activity change, negative = inhibition: at the top concentration
# Method in brief: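 Biochemical qHTS of compounds, final roughly 60 µM downward over six points, against 10 nM purified firefly luciferase using Km concentrations of substrates (10 uM D-luciferin, 10 uM ATP) in Tris acetate pH 7.5 buffer; luminescence output.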
# Potency is the fitted concentration of half-maximal effect; tags give direction and shape of the fitted curve.
Structure (SMILES),Potency,"activity change, negative = inhibition"
CC1=C(C(=O)O)N2C(=O)C(NC(=O)c3nn(C)c(C)c3Cl)C2SC1 (configuration not stated),"inconclusive: 23.9 µM [inhibitor, partial curve, poor fit]",–
O=C(NCc1ccncc1)Nc1ccc2c(c1)OCO2,"inconclusive: 21.3 µM [inhibitor, partial curve, poor fit]",–
COC(=O)C(Cc1ccc(O)cc1)NC(=O)C(C)NC(=O)c1ccc(C(C)(C)C)cc1 (configuration not stated),"inconclusive: 26.9 µM [inhibitor, single point]",–
COc1cccc(-c2cc(C(=O)NCc3ccccc3)[nH]n2)c1,active: 21.3 µM,–
O=C(/C=C/c1ccccc1[N+](=O)[O-])OCC(=O)c1ccccc1,active: 23.9 µM,–
CN1/C(=C\C=C2/SC(=S)N(CC(=O)O)C2=O)C(C)(C)c2ccccc21,active: 16.9 µM,–
COCCN=c1scc(-c2cccs2)n1/N=C/c1ccc(O)c(O)c1O,"inconclusive: 10.7 µM [inhibitor, partial curve]",–
COC(=O)CSc1nnc(NC(=O)CCc2ccccc2)s1,–,inactive: 2.62%
CCOc1ccc(C(C)C)cc1S(=O)(=O)Nc1cccc(-c2ccc(N3CCOCC3)nn2)c1,"inconclusive: 16.9 µM [inhibitor, partial curve]",–
Oc1ccc(N=Cc2c(O)ccc3ccccc23)cc1,active: 16.9 µM,–
COc1ccc(CCNC(=O)C(=O)NCC2OCCN2S(=O)(=O)c2ccc(C)cc2)cc1 (configuration not stated),–,inactive: 2.16%
CCCCOC(=O)Nc1nnc(C(C)C)s1,"inconclusive: 23.9 µM [inhibitor, single point]",–
CCOc1nc(NC(=O)NS(=O)(=O)Oc2ccc(Cl)cc2)nc(-c2ccccc2)n1,"inconclusive: 37.9 µM [inhibitor, partial curve, poor fit]",–
CCCC(=O)Oc1c(Sc2ccc(Cl)cc2)c(C)nn1-c1ccccc1,active: 10.7 µM,–
O=C(O)c1c2c(nc3ccccc13)/C(=C/c1ccccc1[N+](=O)[O-])CCC2,"inconclusive: 21.3 µM [inhibitor, partial curve]",–
O=C(c1ccco1)[C@@H]1[C@@H]2C(=O)N(c3ccccc3)C(=O)[C@@H]2C2c3ccccc3C=CN21 (some centres not stated),"inconclusive: 26.9 µM [inhibitor, single point]",–
CC(=O)Nc1ccc(-n2cc3c(c2-c2ccc(C)cc2)c(=O)n(C)c(=O)n3C)cc1,"inconclusive: 37.9 µM [inhibitor, partial curve, poor fit]",–
CC(C)Oc1ccc2ccccc2c1C=O,"inconclusive: 26.9 µM [inhibitor, single point]",–
CC(C)(C)c1ccc(OCCSc2nc(-c3cccs3)nc3cc(=O)[nH]n23)cc1,active: 15.1 µM,–
CC(C)c1ccc(Nc2cc(C(=O)NCCc3ccccc3)c3ccccc3n2)cc1,"inconclusive: 4.26 µM [inhibitor, partial curve, poor fit]",–
Cc1ccc(C)c(S(=O)(=O)c2nnn3c2nc(N2CCCC2)c2sccc23)c1,–,inactive: 5.56%
Cc1cccc(N2C(S)=C(C#N)C(=O)NC2c2ccco2)c1 (configuration not stated),"inconclusive: 23.9 µM [inhibitor, partial curve]",–
COc1ccccc1CCNC(=O)CSc1ccc(-c2ccco2)nn1,"inconclusive: 23.9 µM [inhibitor, partial curve, poor fit]",–
O=C(Nc1nc(-c2ccccc2)cs1)C1c2ccccc2Oc2ccccc21,–,inactive: 2.63%

Structure (SMILES),Potency,"activity change, negative = inhibition"
Cc1oc2cc3oc(=O)c(CCC(=O)N[C@H](C(=O)O)C(C)C)c(C)c3cc2c1C,"inconclusive: 26.9 µM [inhibitor, partial curve, poor fit]",–
Cc1cc(C)c2c(=O)n(CC(=O)Nc3ccc(Br)c(C)c3)sc2n1,active: 8.49 µM,–
CCc1cccc2c(C(=O)COC(=O)c3ccc(O)cc3)c[nH]c12,"inconclusive: 9.53 µM [inhibitor, partial curve]",–
O=C(c1ccc(CSc2nc3ccncc3n2Cc2ccccc2F)cc1)N1CCCCCC1,active: 23.9 µM,–
COc1ccc2c(c1)c(=O)c(C(=O)c1ccc(F)cc1)cn2CC(=O)Nc1ccc(F)cc1,"inconclusive: 30.1 µM [inhibitor, partial curve, poor fit]",–
CC1=NN(c2ccccc2)C(=O)/C1=C/c1cc2cc(C)ccc2nc1N1CCCCC1,"inconclusive: 13.5 µM [inhibitor, partial curve, poor fit]",–
Cc1ccc(CSc2nc3ccncc3[nH]2)cc1,active: 2.69 µM,–
O=C(O)CCC(=O)Nc1ccc(C(=O)OCC(=O)c2ccc(Cl)cc2Cl)cc1,active: 13.5 µM,–
COc1ccc(CCNC(=O)CCCN2C(=O)C(c3ccccc3)Oc3cccnc32)cc1OC (configuration not stated),–,inactive: 2.04%
CCOC(=O)c1c(S(=O)(=O)N2CCCC(C(=O)Nc3cc(C)ccc3OC)C2)c(C)n(C)c1C (configuration not stated),–,inactive: -5.3%
Cc1cccc(CC(=O)N2CCCC2)c1,–,inactive: -0.826%
O=C(Nc1ccc2c(c1)CCC2)C1COc2ccccc2O1 (configuration not stated),active: 19 µM,–
O=C(CCNS(=O)(=O)c1cccc2nsnc12)Nc1ccc2c(c1)OCCO2,"inconclusive: 8.49 µM [inhibitor, partial curve, poor fit]",–
Cc1cc(SCC(=O)c2cccs2)n2nc(C)c(-c3ccccc3)c2n1,"inconclusive: 19 µM [inhibitor, partial curve]",–
NS(=O)(=O)c1ccc(CCNC(=O)c2coc3ccccc3c2=O)cc1,–,inactive: -1.41%
c1ccc2c(OCCCN3CCCCCC3)cccc2c1,–,inactive: -2.46%
COc1ccc(-c2nnc3sc(COc4ccc(C)cc4)nn23)cc1,"inconclusive: 37.9 µM [inhibitor, partial curve, poor fit]",–
Cc1ccc(C(=O)NNC(=O)c2cc3ccccc3cc2O)cc1,"inconclusive: 21.3 µM [inhibitor, single point]",–
CNS(=O)(=O)c1ccc2nc(NC(=O)c3ccc(N4C(=O)CCC4=O)cc3)sc2c1,"inconclusive: 23.9 µM [inhibitor, partial curve]",–
CC(=O)Nc1ccc2c(c1)CCc1ccccc1-2,"inconclusive: 23.9 µM [inhibitor, partial curve]",–
COc1ccc2[nH]c3c(=S)nc[nH]c3c2c1,"inconclusive: 42.6 µM [inhibitor, partial curve, poor fit]",–
c1ccc(CN2CCC(Nc3ncnc4sccc34)CC2)cc1,–,inactive: 4.54%
COc1ccc(-n2c(C)cc(C(=O)CN3C(=O)c4ccccc4C3=O)c2C)cc1,active: 15.1 µM,–
NC(=O)c1ccsc1NC(=O)COC(=O)/C=C/c1ccccc1,active: 10.7 µM,–

Structure (SMILES),Potency,"activity change, negative = inhibition"
O=C(N/N=C/C=C\c1ccccc1[N+](=O)[O-])c1cccs1,"inconclusive: 23.9 µM [inhibitor, partial curve, poor fit]",–
O=C(Nc1ccc(N2CCN(C(=O)c3cccs3)CC2)c(Cl)c1)c1ccco1,"inconclusive: 37.9 µM [inhibitor, partial curve, poor fit]",–
COc1cccc(NC(=O)CSc2ccccn2)c1,active: 15.1 µM,–
CC(=O)Nc1ccc(NC(=O)c2ccco2)cc1,"inconclusive: 23.9 µM [inhibitor, single point]",–
CCc1nnc(NS(=O)(=O)c2ccc(NC(=S)NC(=O)/C=C/c3cccs3)cc2)s1,"inconclusive: 37.9 µM [inhibitor, partial curve, poor fit]",–
CC(C)(C)C(=O)NC(=S)Nc1ccc(C(F)(F)F)cc1,"inconclusive: 26.9 µM [inhibitor, single point]",–
O=C(NN=C1CCCCCCC1)c1ccccn1,"inconclusive: 30.1 µM [inhibitor, partial curve, poor fit]",–
CCOC(=O)c1ccccc1NC(=O)CSc1ncc2c(n1)-c1ccccc1N(CC)S2(=O)=O,–,inactive: 2.8%
CCCCc1ccc(-c2ccc(C)cc2O)nc1,active: 0.426 µM,–
CC(=O)c1ccc(Nc2ccc(-c3ccccc3C)nn2)cc1,active: 9.53 µM,–
Cc1cc(OCC(=O)NCCCN2CCOCC2)c2c(C)c(C)c(=O)oc2c1,–,inactive: -1.82%
Cc1cc2cc(CN(Cc3ccco3)S(=O)(=O)c3c(C)ccc4nsnc34)c(=O)[nH]c2cc1C,–,inactive: 4.97%
Cc1ccc(C)c(C(=O)Nc2nc3ccccc3[nH]2)c1,–,inactive: -5.15%
CCC(=O)Nc1cccc(-c2cn3c(C)csc3n2)c1,"inconclusive: 21.3 µM [inhibitor, single point]",–
Cc1ccc2nc(C)cc(C(=O)OCC(=O)Nc3cccnc3Cl)c2c1,–,inactive: -0.0452%
Cc1ccc(-c2cc(C(=O)N(C)Cc3cnn(C)c3C)c3cc(Br)ccc3n2)cc1,active: 10.7 µM,–
c1ccc2c(c1)CCCN2c1nc2ccccc2n2cnnc12,active: 15.1 µM,–
CCCCCCCCCOC(=O)C[n+]1csc(CCO)c1C,–,inactive: -0.129%
Cc1oc(-c2ccc(Cl)cc2)nc1CS(=O)CC(=O)NCc1ccc2c(c1)OCO2 (configuration not stated),–,inactive: -4.39%
CCn1c(CNC(=O)c2ccccc2F)cc2cc(C)ccc21,"inconclusive: 12 µM [inhibitor, partial curve, poor fit]",–
Cc1ccc(S(=O)(=O)Nc2cc(=O)[nH]c(SCC(=O)Nc3ccccc3C(F)(F)F)n2)cc1,"inconclusive: 26.9 µM [inhibitor, partial curve, poor fit]",–
Cc1c(C(C)NC(=O)c2ccc3nc(Cc4ccccc4F)oc3c2)cnn1C (configuration not stated),"inconclusive: 37.9 µM [inhibitor, partial curve, poor fit]",–
CSc1cccc(NC(=O)c2ccc3c(c2)c(C)c(C)n3Cc2ccc(F)cc2)c1,–,inactive: -8.85%
Cc1cccc(C(=O)NC2C(=O)NNC2c2ccc(Cl)cc2)c1 (configuration not stated),"inconclusive: 16.9 µM [inhibitor, partial curve]",–
